Test results as given in PMC3084854.
Results are given in words; binding and its absence hold for the method and conditions named. In cells and extracts the contact can be indirect. Some entries that bind do so weakly or less than the wild type. One block for each substance: values may come before it.

Protein sequences, listed by entry. Tags and fused reporters are not part of them. Lines headed by an entry give the natural chain unless they say otherwise; changes in a name come on top.
UniProt Q15672: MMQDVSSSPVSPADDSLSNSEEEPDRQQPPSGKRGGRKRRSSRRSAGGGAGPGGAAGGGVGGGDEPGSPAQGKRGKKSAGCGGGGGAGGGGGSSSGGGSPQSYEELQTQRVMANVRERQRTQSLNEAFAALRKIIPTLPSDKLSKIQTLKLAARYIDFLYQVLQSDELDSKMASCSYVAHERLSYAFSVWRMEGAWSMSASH
UniProt P68400: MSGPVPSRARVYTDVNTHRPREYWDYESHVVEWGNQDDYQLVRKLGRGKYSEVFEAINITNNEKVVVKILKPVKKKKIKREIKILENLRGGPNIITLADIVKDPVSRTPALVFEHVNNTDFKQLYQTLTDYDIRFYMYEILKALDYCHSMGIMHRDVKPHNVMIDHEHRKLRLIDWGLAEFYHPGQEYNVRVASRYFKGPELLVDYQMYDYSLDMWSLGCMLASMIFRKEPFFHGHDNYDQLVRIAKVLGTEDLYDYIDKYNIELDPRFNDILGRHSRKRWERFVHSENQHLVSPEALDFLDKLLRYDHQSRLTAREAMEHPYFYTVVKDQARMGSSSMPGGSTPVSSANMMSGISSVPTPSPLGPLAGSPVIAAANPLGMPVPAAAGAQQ

Tests used:
[1] = target: wild-type Myc-Twist (HEK 293T, transient) (human (by the printed RefSeq NM_000474; not said in words)) (UniProt Q15672); test: co-IP; lysates of HEK 293T cells transfected with both WT Myc-Twist and CK2α; immunoprecipitation with Myc antibody or with CK2α antibody, western blot; nonspecific IgG as control
[2] = target: wild-type Myc-Twist stably expressed in HN31 SCCHN cells (human (by the printed RefSeq NM_000474; not said in words)) (UniProt Q15672); test: co-IP; lysates of HN31 cells stably expressing Myc-Twist; immunoprecipitation with Myc antibody, western blot for endogenous CK2α; also after IL-6 (20 ng/ml, 20 min), which increased the co-precipitated CK2α
[3] = target: wild-type Myc-Twist stably expressed in HN31 SCCHN cells (human (by the printed RefSeq NM_000474; not said in words)) (UniProt Q15672); test: condition: only cells pretreated with tocilizumab (50 ng/ml, 45 min) to block IL-6 signaling; co-IP; lysates of HN31 cells stably expressing Myc-Twist, pretreated with the anti-IL-6 receptor antibody tocilizumab (50 ng/ml, 45 min); immunoprecipitation with Myc antibody, western blot for endogenous CK2α
[4] = target: endogenous CK2α in FaDu SCCHN cells (human (endogenous in FaDu)) (UniProt P68400); test: co-IP; FaDu cell lysate, endogenous proteins; immunoprecipitation with anti-CK2α antibody, western blot for Twist
[5] = target: CK2α (catalytic subunit of casein kinase 2), overexpressed in HEK 293T (human (by the printed RefSeq NM_001895; not said in words)) (UniProt P68400); test: co-IP; lysates of HEK 293T cells transfected with both WT Myc-Twist and CK2α; immunoprecipitation with Myc antibody or with CK2α antibody, western blot; nonspecific IgG as control

binding [1]: binds
Substance: CK2α (catalytic subunit of casein kinase 2), overexpressed in HEK 293T (from UniProt P68400-1 1-391) (enzyme)

binding [2]: binds | binding [3]: no binding
Substance: endogenous CK2α in HN31 Myc-Twist SCCHN cells (from UniProt P68400 1-391) (enzyme)

binding [4]: binds
Substance: endogenous Twist in FaDu SCCHN cells (from UniProt Q15672 1-202)

binding [5]: binds
Substance: wild-type Myc-Twist (HEK 293T, transient) (from UniProt Q15672 1-202)
